Data reported in the supplement of paper PMC3334620.
Whole data set: some 33,000 sequences, median “E-score (-0.5 to 0.5)” near -0.01, cut for the highest 2% near 0.26. The list shows a part of the results.

target: Ste12 (UniProt P13574); test: PBM E-score (8-mer binding enrichment) (E-score (-0.5 to 0.5)); higher = stronger / more preferred TF binding; most listed sequences are background and not binding sites; details: protein concentration: 200 nM; construct: GST-DNA-binding domain
Method: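 Universal 'all 10-mer' protein binding microarrays (Agilent AMADID 015681) probed with GST-tagged S. cerevisiae TFs (full-length or DBD) made by in vitro transcription/translation (PURExpress), about 100-200 nM. Bound TF was detected with fluorescent anti-GST. Each ungapped 8-mer (which stands for itself and its reverse complement) is scored by the PBM enrichment score (E-score), a modified Wilcoxon-Mann-Whitney statistic from -0.5 to +0.5, computed with the Universal PBM Analysis Suite. Scale: above 0.35 generally sequence-specific binding.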

Row | Sequence | PBM E-score
1 | TTACGTAA | -0.143
2 | AGCCCTTC | -0.315
3 | CAGCTGCA | -0.17
4 | CAAGTCTC | -0.116
5 | CAACTAAG | -0.127
6 | GCTGCGCC | -0.161
7 | GAACCAAA | -0.00617
8 | AGCATAAA | 0.142
9 | AGCAGTCG | -0.0751
10 | AAAGGTAT | -0.013
11 | ACCGAAAT | 0.0524
12 | AGCCACCC | -0.17
13 | ACGTCCAC | -0.181
14 | ACGGTAAA | 0.127
15 | ACTCCAAG | 0.0541
16 | TAAAGTGA | 0.251
17 | AGTGGGGC | 0.114
18 | GAAGTGCA | 0.00566
19 | TCACGTCA | 0.0866
20 | TTTGCAAA | 0.214
21 | GTCTAGCA | -0.2
22 | AAGATAAT | 0.147
23 | GCGGTCAA | -0.0277
24 | CCGCGGTC | -0.159
25 | GCCCTAGC | -0.0727

Row | Sequence | PBM E-score
26 | CATATTTA | 0.172
27 | AGATGACG | -0.197
28 | AGAGCGAC | -0.0208
29 | AAAAACGC | 0.0966
30 | CCTATGAG | -0.256
31 | AAGACGTC | -0.00655
32 | CCCTCGAG | 0.0937
33 | ACCTGCAG | -0.192
34 | AACTGTCA | 0.0126
35 | AGTTGCGA | 0.161
36 | CATCTCGC | -0.0981
37 | AGCTAGTC | -0.133
38 | ACAATGCG | -0.0132
39 | ACAGTGTA | 0.0464
40 | ACCCTTGA | -0.0413
41 | GAGTTGCC | -0.0313
42 | AGCCAGTG | -0.186
43 | ATCCGCCG | -0.0274
44 | AGTTGTTA | 0.0689
45 | AAGCGTGT | -0.102
46 | CGCTATAA | -0.0257
47 | TCGGGTCA | 0.148
48 | ATTACTCA | 0.0131
49 | ACTATGCC | 0.0283
50 | CCAAATGC | -0.104

Row | Sequence | PBM E-score
51 | AGTACTAT | -0.0622
52 | ACAATGTC | 0.134
53 | AAAAGTGG | 0.139
54 | CCCTGCGG | -0.0798
55 | AACACTCT | 0.0333
56 | AGATAAGA | 0.212
57 | CTTACAGA | 0.019
58 | AGCGCAGC | -0.22
59 | CAATGCAG | -0.0488
60 | CGTGACTA | -0.044
61 | CTAATCGA | 0.0141
62 | AATACCGA | -0.00314
63 | ACTCTGAA | 0.177
64 | CAGTCAAA | -0.031
65 | ACAGGCAC | -0.162
66 | CCCGATGA | 0.0738
67 | TATGGCGA | -0.0577
68 | ATAGAGAA | 0.0568
69 | AAACGCTT | 0.094
70 | TCTTAACA | 0.049
71 | CACTTGAA | 0.12
72 | CGCATAGA | 0.032
73 | CGAGACGC | 0.013
74 | AATACATT | 0.105
75 | AGGAGCAT | -0.107

Row | Sequence | PBM E-score
76 | AGTTAACC | -0.0704
77 | CCCTACTC | 0.026
78 | AATCTACA | -0.0241
79 | AGTGACAC | -0.0528
80 | GAATCACA | 0.0627
81 | CCCCCTTA | -0.17
82 | AGCTTGAC | 0.0986
83 | CTTGGCTC | -0.189
84 | AGCGGAGG | -0.165
85 | AAAGCTCT | -0.14
86 | AACCTATC | 0.0216
87 | CTTACATA | 0.056
88 | CAATCGTC | 0.108
89 | ACGAAGGG | -0.167
90 | CCGTCACA | 0.0955
91 | TACTTTCA | -0.0131
92 | GGCGTTAC | 0.174
93 | ACCTTAGG | -0.0732
94 | ACGTAGGC | -0.224
95 | AGATACCG | -0.109
96 | CAAGTACG | -0.165
97 | ATCCTGCA | 0.0476
98 | AGTCCTCA | -0.123
99 | CGCAGACG | -0.0385
100 | AGAAGCCC | -0.0519

Row | Sequence | PBM E-score
101 | CATAGGTC | -0.154
102 | GGGCCCCA | -0.146
103 | AAGGTCCA | -0.246
104 | GTGTTGAA | -0.00889
105 | GACCGATC | -0.141
106 | ATTGAATG | 0.185
107 | GGGCCACA | -0.128
108 | ATTCGCGC | -0.0541
109 | CCGTCGTC | -0.243
110 | CCGTATCG | -0.0954
111 | CCGCGCAG | -0.0674
112 | CAGACGAG | -0.0637
113 | CGCTTAAC | -0.0505
114 | GCTGTGGA | -0.122
115 | ACAGACGG | -0.124
116 | AAATGGCC | -0.216
117 | ACTTACGG | -0.0382
118 | ATGAGGCC | -0.0156
119 | CTTGACTC | -0.0327
120 | GGTCTGAA | 0.0815
121 | AGCCGATA | -0.226
122 | GTAGAAAA | 0.158
123 | TGATCTAA | 0.0892
124 | CGGATGTA | -0.0651
125 | AGGAGGCA | -0.234

Row | Sequence | PBM E-score
126 | AGGCTTCC | -0.0298
127 | CCCGTGAA | -0.0332
128 | GAATCGCC | -0.0941
129 | TTGGTAAA | 0.171
130 | ATACACAC | -0.0713
131 | AGTCGTGG | -0.136
132 | GAACAAAC | 0.181
133 | GTATCACA | 0.114
134 | TTACAGAA | 0.133
135 | AACATCAC | -0.108
136 | GGAATCGA | -0.151
137 | CCATAGAA | -0.0941
138 | CAAATTCC | 0.0234
139 | CACGGTTA | 0.1
140 | ACGGCGGA | 0.0906
141 | CCGGGCCC | 0.0509
142 | AGTACCAA | 0.104
143 | AGCACGTC | -0.149
144 | CAAAGGGA | -0.0794
145 | TGCGTTAA | 0.00708
146 | CCCTTCGC | -0.118
147 | ACTCCGGG | 0.108
148 | TCTAGCCA | -0.0679
149 | AAAGCAAC | -0.0355
150 | AACAGTCG | -0.114

Row | Sequence | PBM E-score
151 | GGGGATAA | 0.133
152 | AACATTAT | 0.125
153 | CAGATGTA | -0.172
154 | AAGCACAG | -0.00648
155 | AAATGTAT | 0.243
156 | CAAGCCGA | 0.101
157 | GGTCTTCA | -0.164
158 | CGGGTTCA | 0.0649
159 | CATATAAC | 0.203
160 | ACCCCACT | 0.0311
161 | AGTCCACA | -0.173
162 | CACTTCCA | -0.0241
163 | AGCGCCTC | 0.00642
164 | ACAGTATG | 0.0543
165 | TGCTGACA | -0.0721
166 | CGCAAAAA | 0.232
167 | CAAGAATC | 0.202
168 | AACAACCG | 0.0778
169 | AAATATAT | 0.273
170 | ATCAACGA | -0.0145
171 | CAGGACAC | -0.167
172 | TATAATCA | 0.07
173 | GAGTGCCA | -0.263
174 | ATAGAGAT | 0.0572
175 | GCAGCCGA | 0.0732

Row | Sequence | PBM E-score
176 | ATCATATC | 0.147
177 | GACAATGA | -0.166
178 | ACATTGCG | 0.0529
179 | AACACCCA | -0.0313
180 | GCGCTGTA | 0.0787
181 | GCACGAAA | 0.177
182 | ATTCGTGA | 0.0365
183 | CGCTACTA | 0.017
184 | GCCAAGTA | -0.075
185 | AATCTCTG | 0.0459
186 | CAATAAAA | 0.128
187 | CCGGCTGC | 0.0618
188 | AGAGAGAA | -0.202
189 | AAAAGGCC | -0.148
190 | CTGATGGA | -0.0795
191 | AGTCTGAA | 0.0942
192 | ACGCCTTG | 0.035
193 | AAAACAGT | 0.247
194 | ACAGCCCG | -0.0948
195 | ATAGTCTC | 0.132
196 | ACTCAGAC | 0.0695
197 | AGTACGGA | -0.00441
198 | AAAGCTTT | 0.0791
199 | ACTGAGCC | -0.00502
200 | AGGACAAT | -0.0807

Row | Sequence | PBM E-score
201 | ATGCATTA | 0.114
202 | GATAGCAA | 0.14
203 | CCGTTATA | 0.00346
204 | ACACAGAG | -0.0618
205 | AACTCCGA | 0.14
206 | ACTAACAG | 0.236
207 | CCAATTAA | 0.151
208 | AAAAACGG | 0.174
209 | AGTGTTAA | 0.00597
210 | GAGTCAGA | 0.0439
211 | AGAGGAAA | 0.0478
212 | CTGTAGAA | 0.0983
213 | CACGTATC | -0.0527
214 | CAGGGTCA | -0.191
215 | ATGGAGGA | -0.14
216 | AGGGCGCA | -0.161
217 | CTGAGCGA | -0.13
218 | GAGGCCTA | -0.186
219 | ACAATCCG | -0.0367
